# Test results reported in PubChem BioAssay AID504339 (National Center for Advancing Translational Sciences (NCATS), 2011).
# Among all 390,000 compounds or so, about 17,000 (4.4%) were called active. Inconclusive results, whose numbers are uncertain, are shown with a selection of clear calls. Calls follow the shape of the dose curve; as a rule, active = well fitted inhibition curve with a large enough effect; inconclusive = small, poorly fitted or top-dose-only effect; inactive = no such curve, though single readings can be large or run the other way. Where the call is inconclusive, the potency comes from a doubtful curve fit.
# Molecular target: Lysine-specific demethylase 4A (Homo sapiens) (UniProt O75164)
# Assay: qHTS Assay for Inhibitors of JMJD2A-Tudor Domain; also: nearly all actives have a fitted effect of over 50% in size
# Settings: AlphaScreen JMJD2A-Tudor / H3K4me3 peptide binding; series mostly up to 114 µM
# Potency is read from the fitted curve at half-maximal effect; tags tell the direction and shape of the fitted curve.
# Chain of UniProt O75164 (O75164 whole entry, looked up, the tested form may be a part): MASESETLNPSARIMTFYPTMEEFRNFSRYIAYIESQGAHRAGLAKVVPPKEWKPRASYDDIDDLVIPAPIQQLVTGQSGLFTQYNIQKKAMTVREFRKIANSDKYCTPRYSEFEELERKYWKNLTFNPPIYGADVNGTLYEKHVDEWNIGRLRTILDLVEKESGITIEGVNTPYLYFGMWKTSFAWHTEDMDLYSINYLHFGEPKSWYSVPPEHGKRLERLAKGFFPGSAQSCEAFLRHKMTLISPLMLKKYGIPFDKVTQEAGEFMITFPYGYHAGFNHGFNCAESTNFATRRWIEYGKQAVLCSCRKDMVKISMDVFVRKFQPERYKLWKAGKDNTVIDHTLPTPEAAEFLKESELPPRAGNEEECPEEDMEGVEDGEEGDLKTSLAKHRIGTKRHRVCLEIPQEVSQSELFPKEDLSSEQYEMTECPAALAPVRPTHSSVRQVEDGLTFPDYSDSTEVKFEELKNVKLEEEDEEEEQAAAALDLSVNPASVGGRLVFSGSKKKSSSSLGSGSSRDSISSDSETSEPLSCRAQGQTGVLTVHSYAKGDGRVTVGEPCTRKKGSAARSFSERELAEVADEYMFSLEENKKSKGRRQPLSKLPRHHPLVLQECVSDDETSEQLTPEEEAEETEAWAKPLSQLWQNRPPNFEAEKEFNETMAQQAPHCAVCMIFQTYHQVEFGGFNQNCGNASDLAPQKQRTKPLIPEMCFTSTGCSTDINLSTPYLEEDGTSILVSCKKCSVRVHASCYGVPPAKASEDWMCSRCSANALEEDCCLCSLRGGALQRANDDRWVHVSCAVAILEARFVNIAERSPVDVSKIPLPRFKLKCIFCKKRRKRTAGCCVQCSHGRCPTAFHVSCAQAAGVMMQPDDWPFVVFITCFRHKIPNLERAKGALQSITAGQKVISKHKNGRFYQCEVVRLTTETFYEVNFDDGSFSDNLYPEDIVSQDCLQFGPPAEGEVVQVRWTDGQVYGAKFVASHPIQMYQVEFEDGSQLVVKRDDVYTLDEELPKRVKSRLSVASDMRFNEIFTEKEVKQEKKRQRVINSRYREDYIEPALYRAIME
row,SMILES,Potency
1,Cc1occc(=O)c1O,active: 25.1 µM
2,O=C(CN1C(=O)c2cccc3cccc(c23)C1=O)NCCN1CCOCC1,inactive
3,CCN(CC)CCCOc1ccc(Cl)c(Cl)c1,active: 0.891 µM
4,CCOc1cc(Br)cc(/C=N/NC(=O)c2cccnc2)c1O,active: 39.8 µM
5,Cc1cccc(NC(=O)CSc2nc(-c3ccco3)cc(C(F)(F)F)n2)c1C,inactive
6,COc1cc2[nH]c(Cl)c([N+](=O)[O-])c2cc1OC,"inconclusive: 15.8 µM [inhibitor, full curve]"
7,CC1CCN(C(=O)c2[nH]cnc2C(=O)NCC(=O)OC(C)(C)C)CC1,inactive
8,CN(C)c1ccc(C2C=C(c3ccc(Cl)cc3OC(F)F)Nc3ncnn32)cc1 (stereo unspecified),active: 44.7 µM
9,O=C(Nc1ccc(S(=O)(=O)Nc2cnc3ccccc3n2)cc1)c1ccc([N+](=O)[O-])cc1Cl,"inconclusive: 44.7 µM [inhibitor, partial curve]"
10,O=C(Cc1ccc(S(=O)(=O)N2CCOCC2)s1)Nc1ccccc1Br,"inconclusive: 56.2 µM [inhibitor, partial curve]"
11,S=C(NCC1CCCO1)N1CCN(c2nc(-c3ccccc3)cs2)CC1 (stereo unspecified),"inconclusive: 50.1 µM [inhibitor, partial curve]"
12,CC1(C)CC(=O)c2cc(C(=O)Nc3ccccc3Cl)c(=O)n(-c3ccc(Cl)cc3)c2C1,"inconclusive: 89.1 µM [inhibitor, single point]"
13,O=C(NCc1n[nH]c(=S)n1Cc1ccccc1)c1ccccc1,"inconclusive: 10 µM [inhibitor, full curve, poor fit]"
14,Nc1cc(C(=O)OCC(=O)NCc2ccco2)ccc1Cl,"inconclusive: 79.4 µM [inhibitor, partial curve]"
15,CC1CCN(S(=O)(=O)N2CCCC(C(=O)NCc3ccc(F)cc3)C2)CC1 (stereo unspecified),active: 11.2 µM
16,CN(C)S(=O)(=O)c1cccc(NC(=O)COC(=O)COc2ccccc2[N+](=O)[O-])c1,"inconclusive: 39.8 µM [inhibitor, full curve, poor fit]"
17,Cc1cc(C)nc(SCc2nnc(SCC(=O)Nc3ccc(C)c(C)c3)n2Cc2ccco2)n1,"inconclusive: 50.1 µM [inhibitor, partial curve]"
18,Oc1c(Cl)cc(Oc2cc(Cl)c(O)c(CN3CCOCC3)c2)cc1CN1CCOCC1,"inconclusive: 63.1 µM [inhibitor, partial curve]"
19,O=C(Nc1ccc(Cl)cn1)c1ccc(-c2cc(Cl)ccc2Cl)o1,inactive
20,COc1ccc(S(=O)(=O)n2nc(C)c(S(=O)(=O)N3CCC(C)CC3)c2C)cc1OC,"inconclusive: 79.4 µM [inhibitor, single point]"
21,COc1ccccc1NC(C)=[N+](C)CCNS(=O)(=O)c1ccc(Cl)cc1,"inconclusive: 89.1 µM [inhibitor, single point]"
22,CC(C)c1c(C(=O)N/N=C/c2ccccc2OCc2c(F)cccc2Cl)nnn1-c1nonc1N,"inconclusive: 11.2 µM [inhibitor, full curve, poor fit]"
23,CCN(CC)CCCNC(=S)N1CCN(c2nc(-c3ccc(F)cc3)cs2)CC1,"inconclusive: 63.1 µM [inhibitor, partial curve, poor fit]"

row,SMILES,Potency
1,CCCCN(C(=O)c1cc(-c2ccco2)nc2ccccc12)c1c(N)n(CCCC)c(=O)[nH]c1=O,"inconclusive: 17.8 µM [inhibitor, full curve]"
2,Cc1nn(-c2ccccc2)c(C)c1/C=N/N1CCN(c2ccccn2)CC1,"inconclusive: 22.4 µM [inhibitor, single point]"
3,c1ccc(Cc2nn3c(COc4ccccc4)nnc3s2)cc1,"inconclusive: 89.1 µM [inhibitor, partial curve]"
4,CCC1Nc2ncnc(N3CCOCC3)c2N(Cc2ccc(OC)cc2)C1=O (stereo unspecified),active: 56.2 µM
5,CCOC(=O)c1ccc(-n2c(C)ccc2C)cc1,inactive
6,Cc1ccc(/C=C2\SC(N3CCCCC3)=NC2=O)cc1,"inconclusive: 15.8 µM [inhibitor, full curve, poor fit]"
7,Cc1ccc(C(=O)Oc2coc(CSc3nnc(NC(=O)c4cccs4)s3)cc2=O)cc1C,"inconclusive: 89.1 µM [inhibitor, single point]"
8,CN(C)CCCn1c(-c2ccccc2)nc(=S)c2c1CCCC2,"inconclusive: 79.4 µM [inhibitor, partial curve]"
9,O=C1c2ccccc2C(Nc2ccc3c(c2)OCO3)N1Cc1ccc2c(c1)OCO2 (stereo unspecified),active: 44.7 µM
10,CCC(C)Sc1ccc(-c2nc3ccc(C)cn3c2NCc2ccccc2)cc1OC (stereo unspecified),"inconclusive: 22.4 µM [inhibitor, full curve]"
11,CC(=O)Oc1ccc2nc(-c3cccs3)oc(=O)c2c1,inactive
12,COc1ccccc1CNC(=O)C1CCC(=O)N1C(C)C (stereo unspecified),inactive
13,CC(=O)c1ccc(NC(=O)[C@@H]2CCCN2C(=O)OC(C)(C)C)cc1,inactive
14,Cn1c(=O)c2c(ncn2CC(=O)Nc2nccs2)n(C)c1=O,"inconclusive: 39.8 µM [inhibitor, single point]"
15,COc1ccc2c(c1)C1(C)CC(C)(C)N2C(=O)N1c1ccccc1 (stereo unspecified),"inconclusive: 63.1 µM [inhibitor, partial curve, poor fit]"
16,Cc1ccc(OCC(=O)N/N=C/c2cccc3cccnc23)cc1,active: 56.2 µM
17,O=S(=O)(c1ccccc1)N1CCN(Cc2cccc(Br)c2)CC1,active: 28.2 µM
18,COc1ccc(-n2c(COc3ccccc3)nnc2SCC(N)=O)cc1,inactive
19,CC1CN(c2ccc([N+](=O)[O-])c(NCCOc3ccccc3)c2)CC(C)N1 (stereo unspecified),"inconclusive: 63.1 µM [inhibitor, partial curve]"
20,Cc1ccccc1Nc1nn2c(=O)c3ccc(C(=O)NCC(C)c4ccccc4)cc3nc2s1 (stereo unspecified),inactive
21,CCN(CC)CCCNCC(=O)Nc1ccc2c(c1)CCC2,active: 28.2 µM
22,O=c1c2[nH]c3ccccc3c2ncn1CCC1=CCCCC1,"inconclusive: 28.2 µM [inhibitor, full curve]"
23,Cc1sc(NC(=S)NC(=O)C2CCCCC2)c(C(N)=O)c1C,"inconclusive: 63.1 µM [inhibitor, partial curve, poor fit]"
